Experimental data as given in article PMC4336329 (PLoS ONE, 2015).
About 14,000 (4.5%) of roughly 310,000 compounds showed an effect of 50% or more. Effects have a minus sign here. The list shows a part of the results.

molecular target: human ether-à-go-go-related gene (hERG) potassium channel (human, UniProt Q12809); assay: primary screen, population patch clamp on CHO cells stably expressing hERG
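Also: peak tail current of the secondary pulse compared with the same well before compound.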

human ether-à-go-go-related gene (hERG) potassium channel, sequence (Q12809 whole entry, looked up): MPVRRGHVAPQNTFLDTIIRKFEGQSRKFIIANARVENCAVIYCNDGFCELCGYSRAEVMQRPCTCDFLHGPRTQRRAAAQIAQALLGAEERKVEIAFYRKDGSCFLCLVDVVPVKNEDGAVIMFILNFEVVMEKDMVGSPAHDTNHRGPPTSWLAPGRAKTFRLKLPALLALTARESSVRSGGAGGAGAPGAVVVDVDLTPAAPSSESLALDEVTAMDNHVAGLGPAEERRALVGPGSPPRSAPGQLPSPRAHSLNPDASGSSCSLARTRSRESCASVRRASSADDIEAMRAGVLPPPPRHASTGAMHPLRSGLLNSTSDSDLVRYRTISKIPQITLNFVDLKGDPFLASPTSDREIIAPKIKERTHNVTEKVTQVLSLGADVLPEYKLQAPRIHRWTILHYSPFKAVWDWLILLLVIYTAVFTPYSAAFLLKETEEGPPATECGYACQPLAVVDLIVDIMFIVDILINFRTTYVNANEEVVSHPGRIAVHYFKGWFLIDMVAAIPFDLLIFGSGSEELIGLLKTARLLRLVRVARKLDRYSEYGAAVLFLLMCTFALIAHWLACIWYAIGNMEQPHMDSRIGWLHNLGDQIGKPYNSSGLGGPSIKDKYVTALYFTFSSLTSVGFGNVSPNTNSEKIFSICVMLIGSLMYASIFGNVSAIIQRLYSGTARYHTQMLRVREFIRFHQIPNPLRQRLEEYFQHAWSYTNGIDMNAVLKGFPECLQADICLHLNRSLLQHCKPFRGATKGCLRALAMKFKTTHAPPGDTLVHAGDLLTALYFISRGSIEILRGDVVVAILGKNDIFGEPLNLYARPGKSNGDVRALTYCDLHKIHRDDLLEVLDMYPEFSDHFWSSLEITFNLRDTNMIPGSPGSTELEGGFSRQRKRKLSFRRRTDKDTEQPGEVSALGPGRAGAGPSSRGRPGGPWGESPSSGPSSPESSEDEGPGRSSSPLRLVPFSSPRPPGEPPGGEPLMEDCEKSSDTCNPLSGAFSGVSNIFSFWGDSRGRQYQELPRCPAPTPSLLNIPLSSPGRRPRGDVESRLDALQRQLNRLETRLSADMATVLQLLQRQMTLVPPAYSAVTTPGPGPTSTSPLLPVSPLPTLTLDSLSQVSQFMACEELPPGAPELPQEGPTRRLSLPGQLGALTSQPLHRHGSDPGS

In order of rising “hERG current change (%, negative = inhibition) at 10uM” value:
1. O=C(c1ccc(F)c(S(=O)(=O)N2CCOCC2)c1)N(CCc1ccccc1)Cc1ccccc1  -68.3%
2. CCOC(=O)C1(Cc2ccccc2)CCN(C2Cc3ccccc3C2)CC1  -66.4%
3. CCN(CC)CC(O)c1ccc(C2CCCC2)cc1.Cl (stereo not shown)  -63%
4. COc1ccccc1NS(=O)(=O)c1ccc(C(=O)N2CCCCCCC2)cc1  -26.4%
5. COc1ccc2cc(CCNC(=O)c3ccc(S(=O)(=O)N4CCOCC4)cc3)c(=O)[nH]c2c1  -23.3%
6. COc1cccc(C2CC(c3ccc(Cl)cc3Cl)Nc3nc(N)nn32)c1 (stereo not shown)  -21.7%
7. COC(=O)C1=C(c2cc3ccccc3s2)C[C@@H]2CC[C@H]1N2C(=O)NCc1ccccc1  -20.9%
8. O=C(CC(O)(C(F)(F)F)C(F)(F)F)Nc1ccc(Cl)c(Cl)c1  -20.7%
9. CC(=O)Nc1ccc(NC(=O)CSc2nnc(-c3ccccc3)n2Cc2ccc3c(c2)OCO3)cc1  -19.2%
10. O=C(COC(=O)/C=C/c1cccc(C(F)(F)F)c1)NC1CCS(=O)(=O)C1 (stereo not shown)  -18%
11. N#Cc1cnn(-c2ncnc3sc4c(c23)CCCC4)c1N  -17.4%
12. Cc1ccc2nc(CSc3nnc(Cc4cccs4)n3C3CCCCC3)cc(=O)n2c1  -15.6%
13. O=C(c1cccnc1)C1CCCN(Cc2nc(Cc3ccccc3F)no2)C1 (stereo not shown)  -15.3%
14. COc1cccc(CN(C(=O)c2cc3ccccc3oc2=O)C2CC2)c1  -14.8%
15. Cc1cc(C)cc(NC(=O)C2CCCN2/C=C/C(=O)C(F)(F)F)c1 (stereo not shown)  -12.1%
16. COc1ccc(C(=O)COC(=O)CCc2ccccc2)cc1  -11.4%
17. Cc1nn(-c2ccccc2)c2c1C(c1ccc(F)cc1F)C(C#N)=C(N)O2 (stereo not shown)  -9.42%
18. CC(C)(C)NC(=O)[C@]1(C)CCC[C@@]2(C)C3CC[C@@]4(C)C[C@]3(CCC21)CC4=O (stereo partly shown)  -8.58%
19. COc1ccc(CCNC(=O)CN2C(=O)c3ccccc3S2(=O)=O)cc1OC  -8.28%
20. CCCc1nn(-c2cc(Cl)ccc2OC)c2c1C(=O)CCC2  -7.96%
21. O=C(Nc1nccs1)Oc1ccccc1  -7.32%
22. Cc1ccc2c(c1)COc1c3ccc(C(=O)NCC4CC4)cc3nn1-2  -6.56%
23. CCn1nnc(C(=O)O)c1C(=O)O  -6.51%
24. Cc1ccc(C2N(C)c3ccccc3-c3nc4ccccc4n32)o1 (stereo not shown)  -5.15%
25. Cc1nc2c(C(=O)Nc3ccc(N4CCCC(O)C4)cc3)snc2c(=O)[nH]1 (stereo not shown)  -4.37%
26. COc1ccccc1N(CC(=O)NCCSCc1ccccc1Cl)S(C)(=O)=O  -3.74%
27. Cc1ccccc1CNS(=O)(=O)c1c(C(=O)N2CCCCC2)c(C)n(C)c1C  -3.14%
28. CCc1ccc(NC(=O)N2CCC(c3ccccc3)C2)cc1 (stereo not shown)  -0.867%
29. O=C(/C=C\c1cccs1)c1c(O)ccc2ccc(=O)oc12  -0.288%
30. CC(C)=CC(=O)OCC(=O)Nc1nc(C)c(Cl)cc1Cl  0.219%
31. CC(=O)N(C)c1nnc(-c2ccccn2)s1  0.358%
32. C=CCN1C(=O)NC(=O)/C(=C/c2cccn2C)C1=O  0.367%
33. Clc1ccc(OCCSc2ncccn2)cc1  5.46%
34. O=C1CCCc2oc3ccc(O)cc3c21  6.83%
35. CC(=O)N1CCN(C(=O)c2ccc(S(=O)(=O)Nc3ccccc3F)cc2)CC1  6.9%
36. CCCCn1c(N)c(-c2nc3ccccc3o2)c2c([N+](=O)[O-])nn(C)c(=O)c21  8.09%
37. Cc1cc(C)c2c(-n3cccc3)c(NC(=O)OC(C)C)sc2n1  8.67%
38. Cc1c(O)ccc2c(CC(=O)N[C@@H](Cc3ccc(O)cc3)C(=O)O)cc(=O)oc12  9.14%
39. Cc1ccnc(N2CCCC(C(=O)Nc3cccc(C)c3C)C2)n1 (stereo not shown)  9.42%
40. COc1ccc(C/C(N)=N/O)cc1  9.96%
41. CC1(C)Cc2c(C#N)c(OCC(=O)c3ccc(Cl)cc3)nc(-c3ccco3)c2CO1  10%
42. COc1ccc(-n2c(SCC(=O)Nc3ccc(Cl)cc3)nc(O)c(Cc3ccccc3)c2=O)cc1  10.7%
43. CCNC(=O)N1c2ccccc2Sc2ccccc21  10.8%
44. CCC(=O)N=c1sc2c(OC)ccc(OC)c2n1C  11%
45. COc1cccc(CN2CCNC(=O)C2CC(=O)O)c1OC (stereo not shown)  11.4%
46. O=C1c2ccccc2C2(c3ccc(Cl)cc3)NCCN12 (stereo not shown)  11.7%
47. CCOC1(OCC)N=C(N)C2(C#N)C(c3cccc(C)c3)C12C#N (stereo not shown)  11.8%
48. Cc1cccc2c1c(N=NC(N)=S)c(O)n2C1OC(CO)C(O)C(O)C1O (stereo not shown)  12.2%
49. O=C(O)CC(NC(=O)COc1ccc(Cl)cc1Cl)C(=O)O (stereo not shown)  13.1%
50. COc1ccc(/C=C2\N=C(C)N(c3ccc(C(=O)O)cc3)C2=O)cc1OC  13.6%
51. Nc1nnnn1/N=C/c1cc(Br)ccc1O  15.2%
52. Cc1[nH]n(-c2cccc([N+](=O)[O-])c2)c(=O)c1-c1ccccc1  15.8%
53. O=C(CSc1ccc(F)cc1)N1CCOCC1  16.2%
54. O=c1cc(-c2cccc([N+](=O)[O-])c2)[nH][nH]1  18%
55. CCCCC(=O)N/N=C(/C)C1=C(C)C(C)(C)OC1=O  22%
56. COC(=O)[C@@H](N)CS.Cl  23.1%
57. O=C(O)C(Nc1nc(C(F)(F)F)nc2ccccc12)c1ccccc1 (stereo not shown)  26.2%
58. O=C(c1ccc(C(F)(F)F)cc1)C1CCCN(C(=O)CN2C(=O)CSC2=O)C1 (stereo not shown)  26.7%
